Measured values published in PubChem BioAssay AID624417 (National Center for Advancing Translational Sciences (NCATS), 2012).
The whole screen tested about 410,000 compounds, of which about 6,400 (1.6%) were called active. Inconclusive means that the source gave no clear call. Such entries were picked first, then a sample of the others. Calls come from the whole dose curve; as a rule, active = well fitted inhibition curve with a large enough effect; inconclusive = small, poorly fitted or top-dose-only effect; inactive = no such curve, though single readings can be large or run the other way. No potency is given beside an inconclusive call; the fits are too rough. Numbered stars: 1 amine (or outer) side, 2 acyl side, 3 side chain; on linkers, the order of the positions; unused ones are H or OH. Square brackets hold non-standard residues; d marks the D form. Peptide text beside a SMILES is read from it. ξ: configuration not given here. X4 = CCCCCCC[C@H](O)C[C@@H](N[*:1])[C@@H](O)C(=O)[*:2]; X6 = COc1ccc(CCCC(N[*:1])C(=O)[*:2])cc1; ξThr(3R) = C[C@@H](O)C(N)C(=O)O; NMeN = CN[C@@H](CC(N)=O)C(=O)O; X5 = C/C=C(/N[*:1])C(=O)[*:2]; Dhb = C/C=C(\N)C(=O)O; Sar = CNCC(=O)O

target: Glucagon-like peptide 1 receptor (Homo sapiens) (UniProt P43220); assay: qHTS of GLP-1 Receptor Inverse Agonists (Inhibition Mode); details: HEK293 GLP-1R CRE-luciferase, luminescence, 24 h, GLP-1R form is constitutively active; activity change, negative = inhibition: at 38.3 µM (top of the series) unless noted; note: nearly all actives have a fitted effect of over 55% in size
Chain of UniProt P43220 (P43220 whole entry, looked up): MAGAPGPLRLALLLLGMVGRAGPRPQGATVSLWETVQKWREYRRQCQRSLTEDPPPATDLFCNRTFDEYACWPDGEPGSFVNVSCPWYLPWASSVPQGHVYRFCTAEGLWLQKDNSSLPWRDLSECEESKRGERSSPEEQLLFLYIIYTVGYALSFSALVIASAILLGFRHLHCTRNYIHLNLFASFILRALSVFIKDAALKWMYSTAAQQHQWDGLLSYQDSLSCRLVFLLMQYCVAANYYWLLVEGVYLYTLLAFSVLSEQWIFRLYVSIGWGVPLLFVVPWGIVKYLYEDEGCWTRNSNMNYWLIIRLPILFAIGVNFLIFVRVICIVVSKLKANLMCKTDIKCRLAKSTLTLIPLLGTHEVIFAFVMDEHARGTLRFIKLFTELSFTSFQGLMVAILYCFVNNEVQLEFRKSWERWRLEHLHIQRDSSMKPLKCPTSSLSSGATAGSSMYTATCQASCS
In short: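 Stable HEK293 clone (constitutively active GLP-1R + cAMP-response luciferase); 200 cells/uL plated, 12 h pre-culture, compound 24 hr, 37 deg C/5% CO2; detection reagent 12 min RT; luminescence.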
% is set by controls: 0 for no effect and ±100 for the full control effect; potency is the fitted concentration of half-maximal effect; tags give direction and shape of the fitted curve.

Structure (SMILES)	Potency	activity change, negative = inhibition
COc1ccc(/C=N/Nc2ccc([N+](=O)[O-])cc2)cc1O	inconclusive [inhibitor, single point]	
CC(C)Oc1ccc(C(=O)N(Cc2ccco2)Cc2cccs2)cc1	inconclusive [inhibitor, partial curve, poor fit]	
CC1CCN(CC(=O)Nc2ccc(S(=O)(=O)N3CCC(C)CC3)cc2)CC1	inconclusive [inhibitor, partial curve, poor fit]	
O=C(NCCc1ccc(Cl)cc1Cl)c1cc([N+](=O)[O-])c[nH]c1=O	inconclusive [inhibitor, single point]	
Cc1cc(C)c(S(N)(=O)=O)c(C)c1N(C)S(=O)(=O)c1ccc(Cl)cc1	inconclusive [inhibitor, single point]	
OC(c1ccc(Cl)cc1)c1nccc2ccccc12 (centres undefined)	inconclusive [inhibitor, single point]	
O=C(CSc1nnc(-c2ccc3c(c2)OCO3)o1)Nc1ncc(C(F)(F)F)cc1Cl		inactive: 0.164%
Cc1cc(OCC(=O)N(Cc2ccc(N(C)C)cc2)CC2CCCO2)ccc1Cl (centres undefined)	inconclusive [inhibitor, single point]	
CCC/C=C/c1ccc(CN2C(C(C)C)C(=O)N(Cc3cn(CC4CCCCC4)nn3)CCS2(=O)=O)cc1 (centres undefined)	inconclusive [inhibitor, partial curve, poor fit]	
Cc1cccc(CCNC(=O)c2cccc3c2C(=O)N(C2CCCCC2)C3)c1	inconclusive [inhibitor, partial curve, poor fit]	
COC(=O)CN(c1nc(C)c(Br)c(OC)n1)S(=O)(=O)c1ccccc1	inconclusive [inhibitor, single point]	
Cn1cc([C@]2(O)C(=O)Nc3ccc(OC(F)(F)F)cc32)c2ccccc21	inconclusive [inhibitor, single point]	
CCOc1ccc(-c2nc(CN(Cc3ccccc3)C[C@@H]3CCC(=O)N3)c(C)o2)cc1	inconclusive [inhibitor, partial curve, poor fit]	
COCCNc1nc(NCCOc2ccccc2)c2sc(-c3ccccc3)cc2n1	inconclusive [inhibitor, partial curve]	
CCCCCCN1C[C@H](n2cc(-c3ccc(F)cc3)nn2)[C@@H](O)C[C@@H]1c1ccc(OC)cc1		inactive: -31.2%
Clc1cccc(Cc2c(-c3ccccc3)nc3ccc(Cl)cn23)c1	inconclusive [inhibitor, single point]	
Cc1ccc(CN2C(=O)CCSc3ccc(Cl)cc32)cc1	inconclusive [inhibitor, partial curve, poor fit]	
S=C(Nc1ccc2[nH]ccc2c1)NC1CCCCC1	inconclusive [inhibitor, single point]	
O=C(O)C1CCCN(S(=O)(=O)c2ccccc2)C1 (centres undefined)	inconclusive [inhibitor, single point]	
CCN(Cc1ccccc1)C(=O)c1ccc(C(=O)N(CC)Cc2ccccc2)cc1	inconclusive [inhibitor, partial curve, poor fit]	

Structure (SMILES)	Potency	activity change, negative = inhibition
O=C(CNC(c1ccccc1)c1ccccc1)Nc1ccccc1F	inconclusive [inhibitor, partial curve, poor fit]	
COc1ccc2sc(NC(=O)NC(=O)c3c(Cl)cccc3Cl)nc2c1	inconclusive [inhibitor, partial curve, poor fit]	
CCN1CCN(c2cc(C)nc(-c3ccccc3O)n2)CC1	inconclusive [inhibitor, partial curve, poor fit]	
CCOC(=O)c1ccc(N2CCCCC2)c(NS(=O)(=O)c2cccc(C(F)(F)F)c2)c1	inconclusive [inhibitor, partial curve, poor fit]	
Nc1nn(S(=O)(=O)c2ccccc2)cc1-c1ccc([N+](=O)[O-])cc1		inactive: -1.07%
O=C(CCCn1c(SCc2cccc([N+](=O)[O-])c2)nc2ccccc2c1=O)NCC1CCCO1 (centres undefined)	inconclusive [inhibitor, single point]	
CCOC(=O)c1c(C)oc2ncnc(Nc3ccc(OC)c(OC)c3)c12		inactive: 5.47%
COc1cc(Cl)ccc1OCc1cc(C(=O)N2C[C@@H]3CCC[C@H]2C3)no1	inconclusive [inhibitor, single point]	
CC(=O)Nc1c(C)ccc2nsnc12		inactive: -3.68%
COc1ccccc1-c1csc(C(O)c2cccc(Cl)c2)n1 (centres undefined)	inconclusive [inhibitor, single point]	
CC(C)Oc1ccc(-c2nc3c(C#N)c[nH]n3c2NC2CCCCC2)cc1	inconclusive [inhibitor, single point]	
S=c1nc(C2CCCCC2)[nH]c2ccccc12	inconclusive [inhibitor, single point]	
O=C(N/C(=C/C=C\c1ccccc1)C(=O)N1CCOCC1)c1ccc(Br)cc1	inconclusive [inhibitor, partial curve, poor fit]	
Cc1cccc(C)c1OCC(O)Cn1c2ccccc2c2ccccc21 (centres undefined)	inconclusive [inhibitor, single point]	
COc1cc(C(=O)NCc2cccc3ccccc23)cc(Cl)c1OC	inconclusive [inhibitor, single point]	
Cc1ccccc1C(=O)n1nc(-c2cccnc2)nc1NCc1ccccc1	inconclusive [inhibitor, partial curve, poor fit]	
CN1CCc2ccc(NC(=O)c3ccc(C(F)(F)F)cc3)cc2C1	inconclusive [inhibitor, single point]	
CCn1cc(C(=O)N2CCN(c3cccc(C)c3C)CC2)c2cc(OC)c(OC)cc2c1=O		inactive: 2.99%
Cc1ccc(NC(=O)CN(C)C(=O)COc2cccc3cccnc23)cc1	inconclusive [inhibitor, partial curve, poor fit]	
N/C(Cc1ccc([N+](=O)[O-])cc1)=N\OC(=O)c1ccc(Br)cc1	inconclusive [inhibitor, single point]	

Structure (SMILES)	Potency	activity change, negative = inhibition
CCn1cc2nc(SCC(=O)Nc3ccccc3C(F)(F)F)n(Cc3ccc(C)cc3)c(=O)c2n1	inconclusive [inhibitor, single point]	
CC(C)C(=O)Nc1sc2c(c1C#N)CCCCC2	inconclusive [inhibitor, single point]	
O=C(CCn1c2c(c3ccccc31)CCCC2)NNC(=O)c1ccc(Cl)c([N+](=O)[O-])c1	inconclusive [inhibitor, partial curve, poor fit]	
O=C(NC1=NCCS1)c1cc(-c2cccs2)nc2ccccc12	inconclusive [inhibitor, single point]	
CCN(Cc1ccccc1)C(=O)CCc1nnc(CCCc2ccccc2)o1	inconclusive [inhibitor, single point]	
CC1Cc2ccccc2N1S(=O)(=O)c1nnc(NC(=O)c2ccccc2)s1 (centres undefined)	inconclusive [inhibitor, single point]	
C/C=C1\NC(=O)[C@H](CC(N)=O)N(C)C(=O)C([C@@H](C)O)NC(=O)C(CCCc2ccc(OC)cc2)NC(=O)[C@H](C(C)C)NC(=O)/C(=C\C)NC(=O)[C@H](O)[C@@H](C[C@@H](O)CCCCCCC)NC(=O)[C@H](C)NC(=O)CN(C)C(=O)[C@H](CCC(N)=O)NC1=O (stereo partly drawn) (cyclo(A[X4][X5]V[X6][ξThr(3R)][NMeN][Dhb]Q[Sar]))	inconclusive [inhibitor, single point]	
CN1CCN(C(=O)c2ccc(S(=O)(=O)Nc3ccccc3)cc2)CC1		inactive: 11.6%
O=C(NCC1(N2CCCCC2)CCCCC1)c1ccc(NS(=O)(=O)c2ccc(F)cc2)cc1	inconclusive [inhibitor, single point]	
COc1ccc(C2CC(=O)c3cc(-c4nc(-c5ccc(Cl)cc5)cs4)c(=O)[nH]c3C2)cc1OC (centres undefined)		inactive: -19.8%
O=C(NC(Cc1c[nH]c2ccccc12)C(=O)N/N=C/c1cccc2ccccc12)c1cccs1 (centres undefined)	inconclusive [inhibitor, single point]	
Cc1cc(C(=O)O)ccc1N/C=C1\CCCC(C)C1=O (centres undefined)	inconclusive [inhibitor, partial curve, poor fit]	
Cc1ccsc1C(=O)OCC(=O)c1cc(C)n(C)c1C	inconclusive [inhibitor, partial curve, poor fit]	
O=C(c1ccc(S(=O)(=O)Cc2cc(F)ccc2F)c([N+](=O)[O-])c1)N1CCCC1	active: 8.91 µM	
CC(=O)n1c(Cl)c(NC(=O)CCl)c2ccccc21	inconclusive [inhibitor, single point]	
Cc1cccc(N2CCN(C(=O)CCC(=O)N3CCOc4ccc(Cl)cc43)CC2C)c1 (centres undefined)	inconclusive [inhibitor, partial curve, poor fit]	
O=C(CCS(=O)(=O)c1ccccc1)N(CCCN1CCOCC1)c1nc2ccc(F)cc2s1	inconclusive [inhibitor, single point]	
CCN(C(=O)COC(=O)c1cccc(S(=O)(=O)NCc2ccccc2)c1)c1ccccc1	inconclusive [inhibitor, partial curve, poor fit]	
Cn1ccc2cc(S(=O)(=O)N3CCN(C(=O)Nc4ccc(F)cc4F)CC3)ccc21		inactive: -15.9%
